The test system of one experiment is KB-3-1. The experiment is described as follows: growth inhibition relative to DMSO control (SRB); cervical cancer cells: KB-3-1 is the parent and KB-V1 overexpresses MDR1; SRB is the sulforhodamine B stain; higher = more growth inhibition. Particulars: 1 µM; 72 h.
The next experiment relates to KB-V1. The experiment is described as above. Particulars: 1 µM; 72 h.

Where a name gives a salt, the structure may show the parent alone. The list shows a part of the results. Many values rest on one well or one pass, so single values are uncertain.
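Further: Read-out is SRB optical density at 490 nm, with the control being wells given 0.5% DMSO vehicle, and compound added one day after cells were plated.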

With `COc1cc(Nc2c(C#N)cnc3cc(OCCCN4CCN(C)CC4)c(OC)cc23)c(Cl)cc1Cl` [Bosutinib (SKI-606)], the growth inhibition in the experiment on KB-3-1 came out at 38.9%; in the experiment on KB-V1, 5.19%.

Regarding `CCN1/C(=C/C(C)=O)Sc2ccc(OC)cc21`, the growth inhibition in the experiment on KB-3-1 and in the experiment on KB-V1 was less than 0% each time.

Take `CC(=O)[C@H]1CC[C@H]2[C@@H]3CC=C4C[C@@H](O)CC[C@]4(C)[C@H]3CC[C@]12C` [Pregnenolone]: the growth inhibition turned out to be 50.2% in the experiment on KB-3-1 and 24.5% in the experiment on KB-V1.

As for `CNC(CC(=O)O)C(=O)O` [NMDA (N-Methyl-D-aspartic acid)], the growth inhibition in the experiment on KB-3-1 came to 85.5%; in the experiment on KB-V1 it was 70.5%.

Turning to `O=C(O)c1ccc(Nc2ncc3c(n2)-c2ccc(Cl)cc2C(c2c(F)cccc2F)=NC3)cc1`, the growth inhibition worked out at 96.2% in the experiment on KB-3-1 and 94.8% in the experiment on KB-V1.

Consider `Cc1cnc(Nc2ccc(OCCN3CCCC3)cc2)nc1Nc1cccc(S(=O)(=O)NC(C)(C)C)c1`, for which the growth inhibition in the experiment with KB-3-1 and in the experiment with KB-V1 was less than 0% each time.

With `N#Cc1ccc(C(c2ccc(C#N)cc2)n2cncn2)cc1` [Letrozole], the figures for the growth inhibition in the experiment with KB-3-1 and in the experiment on KB-V1 were 38.1% and 30.4%, respectively.

On to `C[C@H]1c2cccc(O)c2C(=O)C2=C(O)[C@]3(O)C(=O)C(C(N)=O)=C(O)[C@@H](N(C)C)[C@@H]3[C@@H](O)[C@@H]21` [Doxycycline HCl], for which the growth inhibition with KB-3-1 and in the experiment with KB-V1 was less than 0% throughout.

`CNCc1ccc(-c2[nH]c3cc(F)cc4c3c2CCNC4=O)cc1`: the values for the growth inhibition in the experiment on KB-3-1 and in the experiment on KB-V1 were 39.3% and 36%, respectively.

Turning to `Nc1ccn([C@@H]2O[C@H](CO)[C@@H](O)C2(F)F)c(=O)n1` [Gemcitabine], the growth inhibition was 80.1% in the experiment with KB-3-1 and 48.6% in the experiment with KB-V1.

In the case of `COc1cc2nc(N(C)CCCNC(=O)C3CCCO3)nc(N)c2cc1OC` (configuration not stated) [Alfuzosin HCl], the growth inhibition in the experiment on KB-3-1 came to 12.4%; in the experiment on KB-V1, 32.2%.

Regarding `Nc1nnc(-c2cccc(Cl)c2Cl)c(N)n1` [Lamotrigine], the results for the growth inhibition in the experiment with KB-3-1 and in the experiment with KB-V1 were less than 0% and 8.71%, respectively.

Turning to `CC(C)NCC(O)COc1ccc(CCOCC2CC2)cc1` (configuration not stated) [Betaxolol], the growth inhibition in the experiment with KB-3-1 came to 27.9%; in the experiment on KB-V1 it was 23%.

Turning to `Cc1cccc(C)c1OCC(=O)N[C@@H](Cc1ccccc1)[C@@H](O)C[C@H](Cc1ccccc1)NC(=O)[C@H](C(C)C)N1CCCNC1=O` [Lopinavir], the growth inhibition was found to be 13% in the experiment with KB-3-1 and 32.2% in the experiment with KB-V1.

Regarding `Cc1c(C(=O)NN2CCCCC2)nn(-c2ccc(Cl)cc2Cl)c1-c1ccc(Cl)cc1` [Rimonabant], the growth inhibition in the experiment on KB-3-1 was less than 0%; in the experiment on KB-V1 it was 13.3%.

Take `Cc1cc(-c2ncc(CC(=O)Nc3ccc(-c4cnccn4)cn3)cc2C)ccn1`: the growth inhibition with KB-3-1 and in the experiment with KB-V1 was less than 0% in each case.

For the compound `Nc1cc(F)ccc1NC(=O)/C=C/c1cnn(C/C=C/c2ccccc2)c1`, the growth inhibition with KB-3-1 and in the experiment with KB-V1 was less than 0% throughout.

On to `CNCc1cc(-c2ccccc2F)n(S(=O)(=O)c2cccnc2)c1`, for which the results for the growth inhibition in the experiment with KB-3-1 and in the experiment with KB-V1 were 50.1% and 15.4%, respectively.

As for `C[C@@H](Oc1cc(-n2cnc3ccc(CN4CCN(C)CC4)cc32)sc1C(N)=O)c1ccccc1C(F)(F)F`, the growth inhibition in the experiment on KB-3-1 was 57.7%; in the experiment with KB-V1, 88.8%.

On to `Nc1nccc(Oc2ccc(NC(=O)c3c[nH]cc(-c4ccc(F)cc4)c3=O)cc2F)c1Cl`, for which the growth inhibition in the experiment on KB-3-1 was less than 0%; with KB-V1, 51.4%.

Take `CCOC(=O)N1CCC(=C2c3ccc(Cl)cc3CCc3cccnc32)CC1` [Loratadine]: the growth inhibition in the experiment with KB-3-1 amounted to 10.6%; in the experiment on KB-V1 it was 39.6%.

Consider `CC(=O)Oc1ccccc1C(=O)O` [Aspirin], for which the growth inhibition was less than 0% in the experiment on KB-3-1 and 0.244% in the experiment on KB-V1.

Regarding `CCCCN(Cc1ccc(C(=O)NO)cc1)C(=O)Nc1ccccc1` [Nexturastat A], the growth inhibition in the experiment on KB-3-1 stood at 34.8%; in the experiment on KB-V1 it was 8.02%.

For `Clc1ccccc1CN1CCc2sccc2C1` [Ticlopidine HCl], the growth inhibition in the experiment on KB-3-1 was 43.4%; in the experiment on KB-V1, 20.6%.

Turning to `CC1CCc2cc(F)cc3c(=O)c(C(=O)O)cn1c23` (configuration not stated) [Flumequine], the growth inhibition in the experiment on KB-3-1 is less than 0%; in the experiment on KB-V1, 9.02%.

Take `N#C[C@@H]1CCCN1C(=O)CNC12CC3CC(CC(O)(C3)C1)C2` [Vildagliptin (LAF-237)]: the growth inhibition with KB-3-1 and in the experiment on KB-V1 was less than 0% each time.

In the case of `CN(C)CC/C=C1/c2ccccc2Sc2ccc(Cl)cc21` [Chlorprothixene], the growth inhibition in the experiment on KB-3-1 turned out to be 51.2%; in the experiment with KB-V1 it was 24.3%.

Take `Nc1ccn([C@H]2CC[C@@H](CO)O2)c(=O)n1` [Zalcitabine]: the growth inhibition in the experiment on KB-3-1 was found to be 44.9%; in the experiment on KB-V1, 15.9%.

Take `COc1ccc(-c2ccc3c(N4CCOCC4)nc(N4C[C@@H](C)O[C@@H](C)C4)nc3n2)cc1CO`: the growth inhibition in the experiment on KB-3-1 came to 85.2%; in the experiment on KB-V1, 81.5%.

Turning to `C/C=C1\[C@H]2C=C(C)C[C@]1(N)c1ccc(=O)[nH]c1C2` [(-)-Huperzine A (HupA)], the growth inhibition was less than 0% in the experiment with KB-3-1 and 14% with KB-V1.

As for `Cc1ccc(NCCCc2ccccc2)c(N)c1`, the growth inhibition in the experiment with KB-3-1 was less than 0%; with KB-V1 it was 6.64%.

With `C[C@@H]1CN(CC(=O)Nc2ccc3c(c2)Cc2cccc(-c4cc(=O)cc(N5CCOCC5)o4)c2S3)C[C@H](C)O1`, the growth inhibition came to 31.1% in the experiment on KB-3-1 and 15.3% in the experiment on KB-V1.

For `O=c1c(O)c(-c2ccc(O)c(O)c2)oc2cc(O)cc(O)c12` [Quercetin], the growth inhibition in the experiment on KB-3-1 and with KB-V1 was less than 0% in each case.

Take `CCCCC1=NC2(CCCC2)C(=O)N1Cc1ccc(-c2ccccc2-c2nnn[nH]2)cc1` [Irbesartan]: the growth inhibition with KB-3-1 amounted to 30.9%; in the experiment on KB-V1, 20.9%.

As for `c1ccc2c(CC3=NCCN3)cccc2c1` [Naphazoline HCl], the growth inhibition in the experiment on KB-3-1 was 27.8%; with KB-V1 it was 11.8%.

Regarding `Cc1cc(Nc2ncnc3ccc(-c4ccc(CNCCS(C)(=O)=O)o4)cc23)ccc1Oc1ccn2ncnc2c1` [HER2-Inhibitor-1], the growth inhibition in the experiment on KB-3-1 and in the experiment with KB-V1 was less than 0% each time.

As for `CO[C@H]1C[C@@H]2CC[C@@H](C)[C@@](O)(O2)C(=O)C(=O)N2CCCC[C@H]2C(=O)O[C@H]([C@H](C)C[C@@H]2CC[C@@H](OC(=O)C(C)(CO)CO)[C@H](OC)C2)CC(=O)[C@H](C)/C=C(\C)[C@@H](O)[C@@H](OC)C(=O)[C@H](C)C[C@H](C)/C=C/C=C/C=C/1C`, the growth inhibition worked out at 64.7% with KB-3-1 and 27.5% in the experiment with KB-V1.

On to `COc1cc2c(Oc3ccc(NC(=O)C4(C(=O)Nc5ccc(F)cc5)CC4)cc3F)ccnc2cc1OCCCN1CCOCC1`, for which the growth inhibition amounted to 95% in the experiment on KB-3-1 and 81.2% with KB-V1.

With `CCC(C)(Oc1ccc(C2(c3ccc(OC(C)(CC)C(=O)O)cc3)CCCCC2)cc1)C(=O)O` (configuration not stated) [Clinofibrate], the growth inhibition in the experiment with KB-3-1 and with KB-V1 was less than 0% in each case.

`NCCc1c[nH]cn1` [Histamine 2HCl]: the results for the growth inhibition in the experiment on KB-3-1 and in the experiment with KB-V1 were 34.1% and 3.36%, respectively.

On to `CCCCCCCCCCCCCCCCn1cc[n+](Cc2ccccc2)c1C`, for which the growth inhibition in the experiment on KB-3-1 amounted to 99.1%; in the experiment on KB-V1 it was 89.5%.

As to `Cc1c(Cn2c(C)nc3c(C(=O)O)cc(N4CCOCC4)cc32)cccc1C(F)(F)F`, the growth inhibition in the experiment on KB-3-1 amounted to 47.9%; in the experiment with KB-V1, 11.7%.

For the compound `Cc1ccc(S(=O)(=O)/C=C/C#N)cc1`, the growth inhibition is less than 0% with KB-3-1 and 12% in the experiment with KB-V1.

As for `Cc1nc(C#Cc2ccnc(Cl)c2)c(C)n1-c1ccc(OC(F)(F)F)cc1`, the results for the growth inhibition in the experiment on KB-3-1 and with KB-V1 were 31% and 37.1%, respectively.

In the case of `COc1cc2ncnc(Nc3ccc(O)c(Br)c3)c2cc1OC`, the values for the growth inhibition in the experiment with KB-3-1 and in the experiment with KB-V1 were 29.4% and 14.5%, respectively.

On to `CC(=O)Nc1nc2c(Oc3cc(-c4ccc(C(F)(F)F)cc4)ncn3)cccc2s1`, for which the growth inhibition in the experiment on KB-3-1 and with KB-V1 was less than 0% throughout.

In the case of `COc1ccccc1OCCNCC(O)COc1cccc2[nH]c3ccccc3c12` (configuration not stated) [Carvedilol], the values for the growth inhibition in the experiment on KB-3-1 and in the experiment with KB-V1 were 46.6% and 26.5%, respectively.

With `CC[C@H](Nc1ncnc2[nH]cnc12)c1nc2cccc(F)c2c(=O)n1-c1ccccc1` [CAL-101 (Idelalisib, GS-1101)], the growth inhibition in the experiment on KB-3-1 was 0.943%; in the experiment on KB-V1, less than 0%.

In the case of `COc1c(C)cnc(Cn2cnc3c(Cl)nc(N)nc32)c1C`, the growth inhibition with KB-3-1 came out at 88.9%; with KB-V1, 74%.

For `COc1cc2nc(N3CCN(C(=O)C4COc5ccccc5O4)CC3)nc(N)c2cc1OC` (configuration not stated) [Doxazosin Mesylate], the growth inhibition in the experiment with KB-3-1 amounted to 14.2%; in the experiment with KB-V1 it was 45.5%.

Turning to `OCCOCCN1CCN(C(c2ccccc2)c2ccc(Cl)cc2)CC1` (configuration not stated) [Hydroxyzine 2HCl], the growth inhibition in the experiment on KB-3-1 and in the experiment on KB-V1 was less than 0% in each case.

Turning to `Cn1c(N2CCCCS2(=O)=O)nc(C(=O)NCc2ccc(F)cc2)c(O)c1=O`, the growth inhibition was 96% in the experiment on KB-3-1 and 83.8% with KB-V1.

Take `O=C1CCC(N2C(=O)c3ccccc3C2=O)C(=O)N1` (configuration not stated) [Thalidomide]: the growth inhibition was found to be 44.5% in the experiment with KB-3-1 and 31.7% in the experiment with KB-V1.

Regarding `Cc1ccc2nc(NCCN)c3ncc(C)n3c2c1`, the growth inhibition with KB-3-1 amounted to 58.1%; with KB-V1, 16.7%.

With `C[C@]12CC[C@@H]3c4ccc(O)cc4CC[C@H]3[C@@H]1C[C@@H](O)[C@@H]2O` [Estriol], the growth inhibition in the experiment with KB-3-1 is less than 0%; in the experiment with KB-V1, 6.72%.

As for `O=C(Nc1ccccc1)Nc1ccc(-c2ccc(C(=O)[C@@H]3CCC[C@H]3C(=O)O)cc2)cc1`, the growth inhibition in the experiment on KB-3-1 and with KB-V1 was less than 0% throughout.
